{
  "source": "the supplement of paper PMC10441789",
  "note": "The other results are listed elsewhere or left out. Antibody binding of pooled human sera (four to six donors per pool; dilution not stated) to peptides of the Trypanosoma cruzi antigen TSSA on microarrays. Quantile-normalised fluorescence in arbitrary units, mean of duplicate arrays; higher = more binding. No active / inactive call. The uninfected pools are read here as the healthy donors of the same country. The strongest signals lie near the top of the scale (about 60,000).",
  "data": [
    {"test_system": "pooled sera of chronic Chagas disease patients, USA", "assay": "antibody binding signal (normalised fluorescence) (arbitrary fluorescence units); higher = stronger serum antibody binding to peptide", "protocol": "(§1)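 Microarray of 15-residue peptides over residues 30-55 of Trypanosoma cruzi TSSAII, each with 1 to 10 substitutions at naturally variable positions, probed with one serum pool per country.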", "values": [
      {"sequence": "STPPSGKEKKAAAGG", "antibody binding signal": 944},
      {"sequence": "KAAAGGTPSQSGASS", "antibody binding signal": 790},
      {"sequence": "TDNKTAAGEAPSPPG", "antibody binding signal": 6930},
      {"sequence": "KKAATGEAPSQSGAS", "antibody binding signal": 17500},
      {"sequence": "TDNKTATGETPSQPG", "antibody binding signal": 6750},
      {"sequence": "KDKKPATGEAPSQPG", "antibody binding signal": 28800},
      {"sequence": "TDKKPATGGAPSPSG", "antibody binding signal": 1850},
      {"sequence": "KDNKTATGGTPSPSG", "antibody binding signal": 491},
      {"sequence": "KTAAGGTPSPPGASS", "antibody binding signal": 1140},
      {"sequence": "KDNKTATGGAPSQSG", "antibody binding signal": 351},
      {"sequence": "SGKENKAATGGAPSP", "antibody binding signal": 19900},
      {"sequence": "ENKPATGETPSQPGA", "antibody binding signal": 26000},
      {"sequence": "KKAATGEAPSPPGAS", "antibody binding signal": 15500},
      {"sequence": "GTENKAAAGETPSPP", "antibody binding signal": 3190},
      {"sequence": "TPPSGTENKPATGGT", "antibody binding signal": 34200},
      {"sequence": "TEKKPAAGGAPSQSG", "antibody binding signal": 1290},
      {"sequence": "GTDNKTAAGGTPSPP", "antibody binding signal": 1490},
      {"sequence": "GKENKAATGGTPSPS", "antibody binding signal": 15500},
      {"sequence": "KPATGETPSQPGASS", "antibody binding signal": 17700},
      {"sequence": "GKDNKPAAGGTPSQP", "antibody binding signal": 515},
      {"sequence": "GTENKAATGETPSPP", "antibody binding signal": 14400},
      {"sequence": "KKTAAGEAPSQSGAS", "antibody binding signal": 4340},
      {"sequence": "SGTENKAATGEAPSP", "antibody binding signal": 32500},
      {"sequence": "GKENKAATGETPSQS", "antibody binding signal": 24800},
      {"sequence": "KEKKAATGETPSQPG", "antibody binding signal": 7190},
      {"sequence": "GKDKKPATGGAPSPP", "antibody binding signal": 1700},
      {"sequence": "SSTPPSGTENKTAAG", "antibody binding signal": 29400},
      {"sequence": "TDKKTATGGAPSQPG", "antibody binding signal": 506},
      {"sequence": "TPPSGTDNKPAAGGA", "antibody binding signal": 22900},
      {"sequence": "TENKAAAGETPSPPG", "antibody binding signal": 2600},
      {"sequence": "ISTPPSGKEKKAAAG", "antibody binding signal": 638},
      {"sequence": "KKTAAGGTPSQSGAS", "antibody binding signal": 1440},
      {"sequence": "GKENKAAAGETPSPP", "antibody binding signal": 16100},
      {"sequence": "GKDNKAAAGGAPSPP", "antibody binding signal": 801},
      {"sequence": "GKDNKPATGETPSQS", "antibody binding signal": 26100},
      {"sequence": "SGKDKKTAAGGTPSQ", "antibody binding signal": 1840},
      {"sequence": "TPPSGKDNKTATGGA", "antibody binding signal": 2680},
      {"sequence": "KKPATGETPSPPGAS", "antibody binding signal": 16800},
      {"sequence": "KEKKAATGETPSPSG", "antibody binding signal": 7080},
      {"sequence": "GKDNKAAAGGTPSPP", "antibody binding signal": 1300}
    ]},
    {"test_system": "pooled sera of uninfected people, Argentina", "assay": "antibody binding signal (normalised fluorescence) (arbitrary fluorescence units); higher = stronger serum antibody binding to peptide", "protocol": "as §1", "values": [
      {"sequence": "STPPSGKEKKAAAGG", "antibody binding signal": 283},
      {"sequence": "KAAAGGTPSQSGASS", "antibody binding signal": 280},
      {"sequence": "TDNKTAAGEAPSPPG", "antibody binding signal": 138},
      {"sequence": "KKAATGEAPSQSGAS", "antibody binding signal": 392},
      {"sequence": "TDNKTATGETPSQPG", "antibody binding signal": 126},
      {"sequence": "KDKKPATGEAPSQPG", "antibody binding signal": 696},
      {"sequence": "TDKKPATGGAPSPSG", "antibody binding signal": 299},
      {"sequence": "KDNKTATGGTPSPSG", "antibody binding signal": 319},
      {"sequence": "KTAAGGTPSPPGASS", "antibody binding signal": 186},
      {"sequence": "KDNKTATGGAPSQSG", "antibody binding signal": 382},
      {"sequence": "SGKENKAATGGAPSP", "antibody binding signal": 6140},
      {"sequence": "ENKPATGETPSQPGA", "antibody binding signal": 422},
      {"sequence": "KKAATGEAPSPPGAS", "antibody binding signal": 441},
      {"sequence": "GTENKAAAGETPSPP", "antibody binding signal": 152},
      {"sequence": "TPPSGTENKPATGGT", "antibody binding signal": 9190},
      {"sequence": "TEKKPAAGGAPSQSG", "antibody binding signal": 187},
      {"sequence": "GTDNKTAAGGTPSPP", "antibody binding signal": 260},
      {"sequence": "GKENKAATGGTPSPS", "antibody binding signal": 370},
      {"sequence": "KPATGETPSQPGASS", "antibody binding signal": 273},
      {"sequence": "GKDNKPAAGGTPSQP", "antibody binding signal": 346},
      {"sequence": "GTENKAATGETPSPP", "antibody binding signal": 145},
      {"sequence": "KKTAAGEAPSQSGAS", "antibody binding signal": 247},
      {"sequence": "SGTENKAATGEAPSP", "antibody binding signal": 555},
      {"sequence": "GKENKAATGETPSQS", "antibody binding signal": 530},
      {"sequence": "KEKKAATGETPSQPG", "antibody binding signal": 258},
      {"sequence": "GKDKKPATGGAPSPP", "antibody binding signal": 273},
      {"sequence": "SSTPPSGTENKTAAG", "antibody binding signal": 4770},
      {"sequence": "TDKKTATGGAPSQPG", "antibody binding signal": 320},
      {"sequence": "TPPSGTDNKPAAGGA", "antibody binding signal": 3000},
      {"sequence": "TENKAAAGETPSPPG", "antibody binding signal": 92.5},
      {"sequence": "ISTPPSGKEKKAAAG", "antibody binding signal": 403},
      {"sequence": "KKTAAGGTPSQSGAS", "antibody binding signal": 284},
      {"sequence": "GKENKAAAGETPSPP", "antibody binding signal": 339},
      {"sequence": "GKDNKAAAGGAPSPP", "antibody binding signal": 157},
      {"sequence": "GKDNKPATGETPSQS", "antibody binding signal": 576},
      {"sequence": "SGKDKKTAAGGTPSQ", "antibody binding signal": 114},
      {"sequence": "TPPSGKDNKTATGGA", "antibody binding signal": 656},
      {"sequence": "KKPATGETPSPPGAS", "antibody binding signal": 435},
      {"sequence": "KEKKAATGETPSPSG", "antibody binding signal": 360},
      {"sequence": "GKDNKAAAGGTPSPP", "antibody binding signal": 156}
    ]},
    {"test_system": "pooled sera of uninfected people, Bolivia", "assay": "antibody binding signal (normalised fluorescence) (arbitrary fluorescence units); higher = stronger serum antibody binding to peptide", "protocol": "as §1", "values": [
      {"sequence": "STPPSGKEKKAAAGG", "antibody binding signal": 289},
      {"sequence": "KAAAGGTPSQSGASS", "antibody binding signal": 147},
      {"sequence": "TDNKTAAGEAPSPPG", "antibody binding signal": 357},
      {"sequence": "KKAATGEAPSQSGAS", "antibody binding signal": 123},
      {"sequence": "TDNKTATGETPSQPG", "antibody binding signal": 533},
      {"sequence": "KDKKPATGEAPSQPG", "antibody binding signal": 300},
      {"sequence": "TDKKPATGGAPSPSG", "antibody binding signal": 1270},
      {"sequence": "KDNKTATGGTPSPSG", "antibody binding signal": 149},
      {"sequence": "KTAAGGTPSPPGASS", "antibody binding signal": 153},
      {"sequence": "KDNKTATGGAPSQSG", "antibody binding signal": 116},
      {"sequence": "SGKENKAATGGAPSP", "antibody binding signal": 1640},
      {"sequence": "ENKPATGETPSQPGA", "antibody binding signal": 857},
      {"sequence": "KKAATGEAPSPPGAS", "antibody binding signal": 340},
      {"sequence": "GTENKAAAGETPSPP", "antibody binding signal": 392},
      {"sequence": "TPPSGTENKPATGGT", "antibody binding signal": 1700},
      {"sequence": "TEKKPAAGGAPSQSG", "antibody binding signal": 187},
      {"sequence": "GTDNKTAAGGTPSPP", "antibody binding signal": 717},
      {"sequence": "GKENKAATGGTPSPS", "antibody binding signal": 94.8},
      {"sequence": "KPATGETPSQPGASS", "antibody binding signal": 1940},
      {"sequence": "GKDNKPAAGGTPSQP", "antibody binding signal": 472},
      {"sequence": "GTENKAATGETPSPP", "antibody binding signal": 340},
      {"sequence": "KKTAAGEAPSQSGAS", "antibody binding signal": 273},
      {"sequence": "SGTENKAATGEAPSP", "antibody binding signal": 343},
      {"sequence": "GKENKAATGETPSQS", "antibody binding signal": 231},
      {"sequence": "KEKKAATGETPSQPG", "antibody binding signal": 113},
      {"sequence": "GKDKKPATGGAPSPP", "antibody binding signal": 586},
      {"sequence": "SSTPPSGTENKTAAG", "antibody binding signal": 532},
      {"sequence": "TDKKTATGGAPSQPG", "antibody binding signal": 188},
      {"sequence": "TPPSGTDNKPAAGGA", "antibody binding signal": 862},
      {"sequence": "TENKAAAGETPSPPG", "antibody binding signal": 182},
      {"sequence": "ISTPPSGKEKKAAAG", "antibody binding signal": 299},
      {"sequence": "KKTAAGGTPSQSGAS", "antibody binding signal": 123},
      {"sequence": "GKENKAAAGETPSPP", "antibody binding signal": 175},
      {"sequence": "GKDNKAAAGGAPSPP", "antibody binding signal": 290},
      {"sequence": "GKDNKPATGETPSQS", "antibody binding signal": 829},
      {"sequence": "SGKDKKTAAGGTPSQ", "antibody binding signal": 83.9},
      {"sequence": "TPPSGKDNKTATGGA", "antibody binding signal": 398},
      {"sequence": "KKPATGETPSPPGAS", "antibody binding signal": 732},
      {"sequence": "KEKKAATGETPSPSG", "antibody binding signal": 104},
      {"sequence": "GKDNKAAAGGTPSPP", "antibody binding signal": 254}
    ]}
  ]
}
